The record followed here is PMC12820563.

Some of the results follow. The list includes weakly bound sequences.

The target of the test is T1, MBP-FoxP3dN (UniProt Q99JB6).
T1 sequence: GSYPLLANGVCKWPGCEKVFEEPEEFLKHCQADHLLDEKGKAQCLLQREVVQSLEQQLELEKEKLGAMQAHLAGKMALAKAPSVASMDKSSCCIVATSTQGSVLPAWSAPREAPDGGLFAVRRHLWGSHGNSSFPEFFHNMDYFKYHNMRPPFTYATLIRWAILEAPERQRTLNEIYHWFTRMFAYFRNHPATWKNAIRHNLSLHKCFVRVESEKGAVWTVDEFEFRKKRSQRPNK
As to the kind of experiment: PD-seq (MBP pull-down with sequencing). As to conditions: 20 mM Tris-HCl pH 7.5, 100 mM NaCl, 1.5 mM MgCl2, 0.4 uM protein, 0.1 uM dsDNA library, 30 min, room temperature, amylose pull-down; high values mean tight binding; double strand, one strand shown.
For “GATGATTGTTCTCCCAGCTGATGAATTATGGCTATCGAGTAAACAAATTTTCCTAATCTTTCTGTTCAAGCGCCATCTAC”, the binding signal (RPM ratio (pull-down/input)) stood at 0.842. The same measure for “GATGATTGTTCTCCCAGCTGATGAATTTTCCGCCTCGAGTAAACAAATTTTCCTAATCTTTCTGTTCAAGCGCCATCTAC”: 0.519; for “GATGATTGTTCTCCCAGCTGATGAATTTGATCGTTCGAGTAAACAAATTTTCCTAATCTTTCTGTTCAAGCGCCATCTAC”: 0.631; for “GATGATTGTTCTCCCAGCTGATGAATTCATGTCCTCGAGTAAACAAATTTTCCTAATCTTTCTGTTCAAGCGCCATCTAC”: 0.711. The same measure for “GATGATTGTTCTCCCAGCTGATGAATTAGACCTTTCGAGTAAACAAATTTTCCTAATCTTTCTGTTCAAGCGCCATCTAC”: 0.323. “GATGATTGTTCTCCCAGCTGATGAATTTCCAATCTCGAGTAAACAAATTTTCCTAATCTTTCTGTTCAAGCGCCATCTAC”: the binding signal (RPM ratio (pull-down/input)) stood at 0.31. As for “GATGATTGTTCTCCCAGCTGATGAATTCCCAGACTCGAGTAAACAAATTTTCCTAATCTTTCTGTTCAAGCGCCATCTAC”, the binding signal (RPM ratio (pull-down/input)) turned out to be 0.193. “GATGATTGTTCTCCCAGCTGATGAATTAGAGCTATCGAGTAAACAAATTTTCCTAATCTTTCTGTTCAAGCGCCATCTAC”: the binding signal (RPM ratio (pull-down/input)) stood at 0.528. The figure for “GATGATTGTTCTCCCAGCTGATGAATTAGGTCCGTCGAGTAAACAAATTTTCCTAATCTTTCTGTTCAAGCGCCATCTAC” is 0.303; for “GATGATTGTTCTCCCAGCTGATGAATTGCGCATATCGAGTAAACAAATTTTCCTAATCTTTCTGTTCAAGCGCCATCTAC” it is 4.08. The same measure for “GATGATTGTTCTCCCAGCTGATGAATTAGTGCACTCGAGTAAACAAATTTTCCTAATCTTTCTGTTCAAGCGCCATCTAC”: 1.15. Take “GATGATTGTTCTCCCAGCTGATGAATTTCCTGCGTCGAGTAAACAAATTTTCCTAATCTTTCTGTTCAAGCGCCATCTAC”: the binding signal (RPM ratio (pull-down/input)) is 0.376. The figure for “GATGATTGTTCTCCCAGCTGATGAATTCCGGTGTTCGAGTAAACAAATTTTCCTAATCTTTCTGTTCAAGCGCCATCTAC” is 0.754; for “GATGATTGTTCTCCCAGCTGATGAATTAAGCACGTCGAGTAAACAAATTTTCCTAATCTTTCTGTTCAAGCGCCATCTAC” it is 1.23. The figure for “GATGATTGTTCTCCCAGCTGATGAATTGCCGAATTCGAGTAAACAAATTTTCCTAATCTTTCTGTTCAAGCGCCATCTAC” is 1.06. As for “GATGATTGTTCTCCCAGCTGATGAATTTAGCAAGTCGAGTAAACAAATTTTCCTAATCTTTCTGTTCAAGCGCCATCTAC”, the binding signal (RPM ratio (pull-down/input)) worked out at 1.82. “GATGATTGTTCTCCCAGCTGATGAATTTGTTACCTCGAGTAAACAAATTTTCCTAATCTTTCTGTTCAAGCGCCATCTAC”: the binding signal (RPM ratio (pull-down/input)) came to 4.54.

In the case of “GATGATTGTTCTCCCAGCTGATGAATTAGGCGCCTCGAGTAAACAAATTTTCCTAATCTTTCTGTTCAAGCGCCATCTAC”, the binding signal (RPM ratio (pull-down/input)) worked out at 1.35. The same measure for “GATGATTGTTCTCCCAGCTGATGAATTGCCGACTTCGAGTAAACAAATTTTCCTAATCTTTCTGTTCAAGCGCCATCTAC”: 0.763. As for “GATGATTGTTCTCCCAGCTGATGAATTCTAGTCCTCGAGTAAACAAATTTTCCTAATCTTTCTGTTCAAGCGCCATCTAC”, the binding signal (RPM ratio (pull-down/input)) was determined as 0.309. Consider “GATGATTGTTCTCCCAGCTGATGAATTTCATCAATCGAGTAAACAAATTTTCCTAATCTTTCTGTTCAAGCGCCATCTAC”, for which the binding signal (RPM ratio (pull-down/input)) worked out at 0.31. On to “GATGATTGTTCTCCCAGCTGATGAATTTGTGCAATCGAGTAAACAAATTTTCCTAATCTTTCTGTTCAAGCGCCATCTAC”, for which the binding signal (RPM ratio (pull-down/input)) came to 4.74. With “GATGATTGTTCTCCCAGCTGATGAATTCTGGGGCTCGAGTAAACAAATTTTCCTAATCTTTCTGTTCAAGCGCCATCTAC”, the binding signal (RPM ratio (pull-down/input)) was found to be 0.253. The figure for “GATGATTGTTCTCCCAGCTGATGAATTGCGGACATCGAGTAAACAAATTTTCCTAATCTTTCTGTTCAAGCGCCATCTAC” is 0.781.

Consider “GATGATTGTTCTCCCAGCTGATGAATTTCACAGTTCGAGTAAACAAATTTTCCTAATCTTTCTGTTCAAGCGCCATCTAC”, for which the binding signal (RPM ratio (pull-down/input)) stood at 0.328. The figure for “GATGATTGTTCTCCCAGCTGATGAATTAGGGTAGTCGAGTAAACAAATTTTCCTAATCTTTCTGTTCAAGCGCCATCTAC” is 0.535; for “GATGATTGTTCTCCCAGCTGATGAATTCAAGCCTTCGAGTAAACAAATTTTCCTAATCTTTCTGTTCAAGCGCCATCTAC” it is 1.29. The same measure for “GATGATTGTTCTCCCAGCTGATGAATTGTAACGGTCGAGTAAACAAATTTTCCTAATCTTTCTGTTCAAGCGCCATCTAC”: 0.469; for “GATGATTGTTCTCCCAGCTGATGAATTTTTCGTATCGAGTAAACAAATTTTCCTAATCTTTCTGTTCAAGCGCCATCTAC”: 0.378; for “GATGATTGTTCTCCCAGCTGATGAATTCGGGTACTCGAGTAAACAAATTTTCCTAATCTTTCTGTTCAAGCGCCATCTAC”: 0.645. Consider “GATGATTGTTCTCCCAGCTGATGAATTCGGCAATTCGAGTAAACAAATTTTCCTAATCTTTCTGTTCAAGCGCCATCTAC”, for which the binding signal (RPM ratio (pull-down/input)) was found to be 4.03. The same measure for “GATGATTGTTCTCCCAGCTGATGAATTCATATCGTCGAGTAAACAAATTTTCCTAATCTTTCTGTTCAAGCGCCATCTAC”: 0.845. Turning to “GATGATTGTTCTCCCAGCTGATGAATTTCATGACTCGAGTAAACAAATTTTCCTAATCTTTCTGTTCAAGCGCCATCTAC”, the binding signal (RPM ratio (pull-down/input)) amounted to 0.388.

With “GATGATTGTTCTCCCAGCTGATGAATTCTTGCCATCGAGTAAACAAATTTTCCTAATCTTTCTGTTCAAGCGCCATCTAC”, the binding signal (RPM ratio (pull-down/input)) was found to be 1.84. For “GATGATTGTTCTCCCAGCTGATGAATTAGTTACATCGAGTAAACAAATTTTCCTAATCTTTCTGTTCAAGCGCCATCTAC”, the binding signal (RPM ratio (pull-down/input)) came to 0.891. For “GATGATTGTTCTCCCAGCTGATGAATTGGAATATTCGAGTAAACAAATTTTCCTAATCTTTCTGTTCAAGCGCCATCTAC”, the binding signal (RPM ratio (pull-down/input)) is 0.465. With “GATGATTGTTCTCCCAGCTGATGAATTTGTATACTCGAGTAAACAAATTTTCCTAATCTTTCTGTTCAAGCGCCATCTAC”, the binding signal (RPM ratio (pull-down/input)) worked out at 7.1. As to “GATGATTGTTCTCCCAGCTGATGAATTACGCACCTCGAGTAAACAAATTTTCCTAATCTTTCTGTTCAAGCGCCATCTAC”, the binding signal (RPM ratio (pull-down/input)) was 1.35.

As for “GATGATTGTTCTCCCAGCTGATGAATTGCATGTATCGAGTAAACAAATTTTCCTAATCTTTCTGTTCAAGCGCCATCTAC”, the binding signal (RPM ratio (pull-down/input)) was determined as 2.88. The same measure for “GATGATTGTTCTCCCAGCTGATGAATTGGCCAGCTCGAGTAAACAAATTTTCCTAATCTTTCTGTTCAAGCGCCATCTAC”: 0.253; for “GATGATTGTTCTCCCAGCTGATGAATTTGATGTGTCGAGTAAACAAATTTTCCTAATCTTTCTGTTCAAGCGCCATCTAC”: 6.14; for “GATGATTGTTCTCCCAGCTGATGAATTGAGATTTTCGAGTAAACAAATTTTCCTAATCTTTCTGTTCAAGCGCCATCTAC”: 0.596. Turning to “GATGATTGTTCTCCCAGCTGATGAATTGTTTATTTCGAGTAAACAAATTTTCCTAATCTTTCTGTTCAAGCGCCATCTAC”, the binding signal (RPM ratio (pull-down/input)) was 6.99. “GATGATTGTTCTCCCAGCTGATGAATTCCTGCTTTCGAGTAAACAAATTTTCCTAATCTTTCTGTTCAAGCGCCATCTAC”: the binding signal (RPM ratio (pull-down/input)) amounted to 0.695.

On to “GATGATTGTTCTCCCAGCTGATGAATTGTCAAAATCGAGTAAACAAATTTTCCTAATCTTTCTGTTCAAGCGCCATCTAC”, for which the binding signal (RPM ratio (pull-down/input)) came to 0.24.

“GATGATTGTTCTCCCAGCTGATGAATTAGGCACTTCGAGTAAACAAATTTTCCTAATCTTTCTGTTCAAGCGCCATCTAC”: the binding signal (RPM ratio (pull-down/input)) came out at 0.813. Consider “GATGATTGTTCTCCCAGCTGATGAATTTCTGAGATCGAGTAAACAAATTTTCCTAATCTTTCTGTTCAAGCGCCATCTAC”, for which the binding signal (RPM ratio (pull-down/input)) was 0.215. In the case of “GATGATTGTTCTCCCAGCTGATGAATTAGATACGTCGAGTAAACAAATTTTCCTAATCTTTCTGTTCAAGCGCCATCTAC”, the binding signal (RPM ratio (pull-down/input)) came to 0.583. On to “GATGATTGTTCTCCCAGCTGATGAATTCGGTCGGTCGAGTAAACAAATTTTCCTAATCTTTCTGTTCAAGCGCCATCTAC”, for which the binding signal (RPM ratio (pull-down/input)) worked out at 0.238. Regarding “GATGATTGTTCTCCCAGCTGATGAATTATGACTCTCGAGTAAACAAATTTTCCTAATCTTTCTGTTCAAGCGCCATCTAC”, the binding signal (RPM ratio (pull-down/input)) was 2.29. For the sequence “GATGATTGTTCTCCCAGCTGATGAATTCAAATGTTCGAGTAAACAAATTTTCCTAATCTTTCTGTTCAAGCGCCATCTAC”, the binding signal (RPM ratio (pull-down/input)) was found to be 0.501.

“GATGATTGTTCTCCCAGCTGATGAATTGTGTTGTTCGAGTAAACAAATTTTCCTAATCTTTCTGTTCAAGCGCCATCTAC”: the binding signal (RPM ratio (pull-down/input)) was determined as 8.43.

As for “GATGATTGTTCTCCCAGCTGATGAATTCTCGGGATCGAGTAAACAAATTTTCCTAATCTTTCTGTTCAAGCGCCATCTAC”, the binding signal (RPM ratio (pull-down/input)) amounted to 0.184. As for “GATGATTGTTCTCCCAGCTGATGAATTTGCACCCTCGAGTAAACAAATTTTCCTAATCTTTCTGTTCAAGCGCCATCTAC”, the binding signal (RPM ratio (pull-down/input)) came out at 0.844. Regarding “GATGATTGTTCTCCCAGCTGATGAATTTAGATCTTCGAGTAAACAAATTTTCCTAATCTTTCTGTTCAAGCGCCATCTAC”, the binding signal (RPM ratio (pull-down/input)) came out at 0.428.

As to “GATGATTGTTCTCCCAGCTGATGAATTCCACTAATCGAGTAAACAAATTTTCCTAATCTTTCTGTTCAAGCGCCATCTAC”, the binding signal (RPM ratio (pull-down/input)) was determined as 0.298.

As for “GATGATTGTTCTCCCAGCTGATGAATTTCGCACCTCGAGTAAACAAATTTTCCTAATCTTTCTGTTCAAGCGCCATCTAC”, the binding signal (RPM ratio (pull-down/input)) worked out at 1.65. For “GATGATTGTTCTCCCAGCTGATGAATTCTCGGCATCGAGTAAACAAATTTTCCTAATCTTTCTGTTCAAGCGCCATCTAC”, the binding signal (RPM ratio (pull-down/input)) came to 0.601. With “GATGATTGTTCTCCCAGCTGATGAATTATTTCGTTCGAGTAAACAAATTTTCCTAATCTTTCTGTTCAAGCGCCATCTAC”, the binding signal (RPM ratio (pull-down/input)) turned out to be 0.436. Take “GATGATTGTTCTCCCAGCTGATGAATTTTTGCACTCGAGTAAACAAATTTTCCTAATCTTTCTGTTCAAGCGCCATCTAC”: the binding signal (RPM ratio (pull-down/input)) was found to be 0.699. The figure for “GATGATTGTTCTCCCAGCTGATGAATTGCTATAATCGAGTAAACAAATTTTCCTAATCTTTCTGTTCAAGCGCCATCTAC” is 0.663.

As to “GATGATTGTTCTCCCAGCTGATGAATTATCCTGATCGAGTAAACAAATTTTCCTAATCTTTCTGTTCAAGCGCCATCTAC”, the binding signal (RPM ratio (pull-down/input)) was 0.184.

Consider “GATGATTGTTCTCCCAGCTGATGAATTCCCCCCTTCGAGTAAACAAATTTTCCTAATCTTTCTGTTCAAGCGCCATCTAC”, for which the binding signal (RPM ratio (pull-down/input)) was 0.244.
